The other results are listed elsewhere or left out. Single values are uncertain, as repeats are few or missing.
Legend:
Test in all cases: cell count relative to DMSO control; melanoma cells; higher = more viable cells
Settings in all cases: library dose: low library concentration; 72 h
COLO792 = test system: COLO792
COLO800 = test system: COLO800
COLO829 = test system: COLO829
G361 = test system: G361
IPC-298 = test system: IPC-298
IST-MEL1 = test system: IST-MEL1
LB2518-MEL = test system: LB2518-MEL
LOXIMVI = test system: LOXIMVI
MEL-HO = test system: MEL-HO
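Further: cell number obtained by counting DAPI-stained nuclei in high-throughput microscope images with image analysis software, screen run in 1,536-well plates.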

SMILES | cell count (COLO792) | cell count (COLO800) | cell count (COLO829) | cell count (G361) | cell count (IPC-298) | cell count (IST-MEL1) | cell count (LB2518-MEL) | cell count (LOXIMVI) | cell count (MEL-HO)
O=C(CCCCCCC(=O)Nc1ccccc1)NO [vorinostat] + NC(=O)Nc1cc(-c2cccc(F)c2)sc1C(=O)N[C@H]1CCCNC1 [AZD7762] (first compound 0.08 µM, partner dose 0.02 µM) | 93.9% | 64.8% | 95.8% | 112% | 99.8% | 104% | 116% | 99.8% | 101%
C#Cc1cccc(Nc2ncnc3cc(OCCOC)c(OCCOC)cc23)c1 [erlotinib] + CN(C)S(=O)(=O)c1ccc2c(c1)/C(=C/c1cc3c([nH]1)CCCC3)C(=O)N2 [SU6656] (first compound 0.8 µM, partner dose 0.4 µM) | 89.9% | 122% | 104% | 103% | 93.1% | 101% | 77.7% | 69.6% | 93.2%
COCC[n+]1c2c(n(Cc3cnccn3)c1C)C(=O)c1ccccc1C2=O + O=C(CCCCCCC(=O)Nc1ccccc1)NO [vorinostat] (first compound 0.0004 µM, partner dose 0.08 µM) | 105% | 69.3% | 92.6% | 100% | 98.8% | 81.3% | 91.9% | 91.5% | 96.7%
Clc1ccc(Nc2nnc(Cc3ccncc3)c3ccccc23)cc1 [vatalanib] + O=C(O)C(=O)Nc1sc2c(c1C(=O)O)CCNC2 [TCS401] (first compound 2 µM, partner dose 1.66667 µM) | 102% | 94.4% | 113% | 85.9% | 101% | 101% | 110% | 114% | 89.1%
Clc1ccc(Nc2nnc(Cc3ccncc3)c3ccccc23)cc1 [vatalanib] + NC(=O)Nc1cc(-c2cccc(F)c2)sc1C(=O)N[C@H]1CCCNC1 [AZD7762] (first compound 2 µM, partner dose 0.02 µM) | 95% | 67.9% | 104% | 89.9% | 99.5% | 97.4% | 114% | 101% | 93.8%
C#Cc1cccc(Nc2ncnc3cc(OCCOC)c(OCCOC)cc23)c1 [erlotinib] + Cc1cc(N2CCOCC2)cc2[nH]c(-c3c(NC[C@@H](O)c4cccc(Cl)c4)cc[nH]c3=O)nc12 [BMS536924] (first compound 0.8 µM, partner dose 0.2 µM) | 62.8% | 53.9% | 101% | 88.1% | 86.8% | 97.7% | 85.8% | 88.4% | 80.1%
COCC[n+]1c2c(n(Cc3cnccn3)c1C)C(=O)c1ccccc1C2=O + O=C(Nc1cccc(Cl)c1)Nc1ncc(CCNc2ncnc3ccsc23)s1 [SNS314] (first compound 0.0004 µM, partner dose 0.0008 µM) | 103% | 70.3% | 111% | 104% | 85.9% | 76.6% | 84.6% | 75.3% | 111%
C#Cc1cccc(Nc2ncnc3cc(OCCOC)c(OCCOC)cc23)c1 [erlotinib] + COc1cc2c(Oc3ccc4[nH]c(C)cc4c3F)ncnc2cc1OCCCN1CCCC1 [cediranib] (first compound 0.8 µM, partner dose 0.4 µM) | 75.8% | 63.6% | 98.7% | 91.5% | 104% | 106% | 122% | 86.9% | 92.2%
Clc1ccc(Nc2nnc(Cc3ccncc3)c3ccccc23)cc1 [vatalanib] + CC(C)(C)c1cnc(CSc2cnc(NC(=O)C3CCNCC3)s2)o1 [SNS-032] (first compound 2 µM, partner dose 0.01 µM) | 92.4% | 132% | 110% | 92% | 90.1% | 87.1% | 92% | 104% | 88.2%
C#Cc1cccc(Nc2ncnc3cc(OCCOC)c(OCCOC)cc23)c1 [erlotinib] + O=C(CCCCCCC(=O)Nc1ccccc1)NO [vorinostat] (first compound 0.8 µM, partner dose 0.08 µM) | 84.4% | 72.4% | 78.3% | 96.5% | 92.8% | 95.9% | 84.3% | 106% | 91.8%
Cn1c(Nc2ccc(C(F)(F)F)cc2)nc2cc(Oc3ccnc(-c4ncc(C(F)(F)F)[nH]4)c3)ccc21 + COc1cc2c(Oc3ccc4[nH]c(C)cc4c3F)ncnc2cc1OCCCN1CCCC1 [cediranib] (first compound 0.08 µM, partner dose 0.4 µM) | 47.6% | 106% | 105% | 76% | 57.9% | 93.9% | 47.4% | 109% | 74.4%
Nc1cccc2c1CN(C1CCC(=O)NC1=O)C2=O (stereo unspecified) [lenalidomide] + OCCn1cc(-c2cnc3nnn(Cc4ccc5ncccc5c4)c3n2)cn1 [PF04217903] (first compound 1 µM, partner dose 1 µM) | 99.5% | 47.2% | 108% | 89.6% | 92.8% | 95% | 110% | 97.6% | 95.7%
Cn1c(Nc2ccc(C(F)(F)F)cc2)nc2cc(Oc3ccnc(-c4ncc(C(F)(F)F)[nH]4)c3)ccc21 + COc1cc(Nc2ncc(F)c(Nc3ccc4c(n3)NC(=O)C(C)(C)O4)n2)cc(OC)c1OC [Tamatinib] (first compound 0.08 µM, partner dose 0.4 µM) | 51.2% | 84.6% | 88.7% | 75.7% | 76.7% | 94% | 58.6% | 45.1% | 92.7%
Clc1ccc(Nc2nnc(Cc3ccncc3)c3ccccc23)cc1 [vatalanib] + COc1cc2c(Oc3ccc4[nH]c(C)cc4c3F)ncnc2cc1OCCCN1CCCC1 [cediranib] (first compound 2 µM, partner dose 0.4 µM) | 82.4% | 87.6% | 92% | 98.7% | 91.7% | 99.3% | 93.2% | 78.4% | 88.7%
Clc1ccc(Nc2nnc(Cc3ccncc3)c3ccccc23)cc1 [vatalanib] + O=C(CCCCCCC(=O)Nc1ccccc1)NO [vorinostat] (first compound 2 µM, partner dose 0.08 µM) | 81.5% | 94.5% | 83.4% | 89.8% | 95.9% | 98.2% | 90.7% | 100% | 91.6%
Clc1ccc(Nc2nnc(Cc3ccncc3)c3ccccc23)cc1 [vatalanib] + CCN(CC)CCCCNc1ncc2cc(-c3cc(OC)cc(OC)c3)c(NC(=O)NC(C)(C)C)nc2n1 [PD173074] (first compound 2 µM, partner dose 0.1 µM) | 82% | 72.2% | 83.8% | 95.7% | 98.8% | 98.7% | 101% | 95.4% | 93.6%
OCc1c[nH]c2ccccc12 [Indole-3-carbinol] + CCc1ccc(CCOc2ccc(CC3SC(=O)NC3=O)cc2)nc1 [pioglitazone] (first compound 0.8 µM, partner dose 2 µM) | 95.6% | 79.9% | 114% | 106% | 95.1% | 94.2% | 88.9% | 80.2% | 91.8%
Clc1ccc(Nc2nnc(Cc3ccncc3)c3ccccc23)cc1 [vatalanib] + O=C(Nc1cccc(Cl)c1)Nc1ncc(CCNc2ncnc3ccsc23)s1 [SNS314] (first compound 2 µM, partner dose 0.0008 µM) | 98.6% | 106% | 91.9% | 101% | 95% | 94.6% | 112% | 109% | 86.7%
Clc1ccc(Nc2nnc(Cc3ccncc3)c3ccccc23)cc1 [vatalanib] + Cc1ccc(NC(=O)c2cccc(N(C)C)c2)cc1NC(=O)c1ccc(O)cc1 [ZM336372] (first compound 2 µM, partner dose 2 µM) | 110% | 136% | 89.5% | 98.5% | 80.7% | 92.4% | 88% | 91.9% | 70.6%
Clc1ccc(Nc2nnc(Cc3ccncc3)c3ccccc23)cc1 [vatalanib] + C[C@@H]1CCN(C(=O)CC#N)C[C@@H]1N(C)c1ncnc2[nH]ccc12 [CP690550] (first compound 2 µM, partner dose 1 µM) | 82.8% | 102% | 102% | 95.8% | 92.8% | 96% | 95.2% | 109% | 109%
OCc1c[nH]c2ccccc12 [Indole-3-carbinol] + CN(C)S(=O)(=O)c1ccc2c(c1)/C(=C/c1cc3c([nH]1)CCCC3)C(=O)N2 [SU6656] (first compound 0.8 µM, partner dose 0.4 µM) | 77.3% | 51.2% | 94.4% | 102% | 105% | 92% | 108% | 77.6% | 89%
C#Cc1cccc(Nc2ncnc3cc(OCCOC)c(OCCOC)cc23)c1 [erlotinib] + C=CCn1c(=O)c2cnc(Nc3ccc(N4CCN(C)CC4)cc3)nc2n1-c1cccc(C(C)(C)O)n1 [MK1775] (first compound 0.8 µM, partner dose 0.02 µM) | 76% | 132% | 106% | 88.4% | 93% | 95.1% | 92.8% | 83.6% | 90.1%
OCc1c[nH]c2ccccc12 [Indole-3-carbinol] + NC(=O)Nc1cc(-c2cccc(F)c2)sc1C(=O)N[C@H]1CCCNC1 [AZD7762] (first compound 0.8 µM, partner dose 0.02 µM) | 88.6% | 93.2% | 65% | 91% | 109% | 100% | 122% | 91.9% | 107%
Cn1c(Nc2ccc(C(F)(F)F)cc2)nc2cc(Oc3ccnc(-c4ncc(C(F)(F)F)[nH]4)c3)ccc21 + C=CCn1c(=O)c2cnc(Nc3ccc(N4CCN(C)CC4)cc3)nc2n1-c1cccc(C(C)(C)O)n1 [MK1775] (first compound 0.08 µM, partner dose 0.02 µM) | 35.9% | 69.5% | 65.4% | 61.9% | 51% | 88.6% | 48.8% | 70.2% | 76.5%

— the supplement of paper PMC4604168 (melanoma cell lines)
